Cytotoxicity call and growth inhibition call data for 30 compounds are collected here from the antibiotic and cytotoxicity screens of Wong et al. (2023).

In one assay the test system is HSkMC. Briefly: cytotoxicity call (relative viability < 0.9). As to conditions: 10 µM.
A further assay deals with S. aureus RN4220. Briefly: growth inhibition call (relative growth <= 0.2). Conditions: 50 µM.

This is one part of the list.

Take `O=C(Cc1nn[nH]n1)NS(=O)(=O)c1ccccc1`: the cytotoxicity call with HSkMC was “inactive”. The growth inhibition call in the assay with S. aureus RN4220 was “inactive”.
Regarding `COc1ccc(NC(=O)Nc2cccc3c2O[C@@H](CN(C)C(=O)Nc2cccc4ccccc24)[C@H](C)CN([C@H](C)CO)C3=O)cc1`, the cytotoxicity call in the assay with HSkMC is “inactive”. The growth inhibition call with S. aureus RN4220 was “inactive”.
As to `COc1ccc(S(=O)(=O)N(C)C[C@@H]2Oc3ccc(NC(=O)NC(C)C)cc3CC(=O)N([C@H](C)CO)C[C@H]2C)cc1`, the cytotoxicity call in the assay on HSkMC was “inactive”. In the assay on S. aureus RN4220, the growth inhibition call was “inactive”.
In the case of `COCCNC(=O)C[C@@H]1C[C@H]2c3cc(NC(=O)COC)ccc3O[C@H]2[C@@H](CO)O1`, the cytotoxicity call in the assay on HSkMC is “inactive”. For the same compound, the growth inhibition call in the assay with S. aureus RN4220 is “inactive”.
For the compound `CC(C)(O)[C@H]1CC[C@@](C)([C@H]2[C@@H](O)C[C@@]3(C)[C@@H]4C[C@H](O[C@@H]5O[C@H](CO)[C@@H](O)[C@H](O)[C@H]5O)[C@H]5C(C)(C)[C@@H](O[C@@H]6OC[C@@H](O)[C@H](O)[C@H]6O)CC[C@@]56C[C@@]46CC[C@]23C)O1`, the cytotoxicity call with HSkMC was “inactive”. Also, in the assay on S. aureus RN4220, the growth inhibition call was “inactive”.
As to `C[C@@H]1CN([C@@H](C)CO)C(=O)c2cc(NC(=O)Nc3ccc(F)cc3)ccc2O[C@H]1CN(C)S(C)(=O)=O`, the cytotoxicity call with HSkMC was “inactive”. In addition, in the assay on S. aureus RN4220, the growth inhibition call is “inactive”.
For `O=C(C[C@@H]1C[C@H]2c3cc(NS(=O)(=O)c4ccc(F)cc4)ccc3O[C@H]2[C@@H](CO)O1)NCc1ccc(Oc2ccccc2)cc1`, the cytotoxicity call in the assay on HSkMC was “inactive”. For the same compound, in the assay with S. aureus RN4220, the growth inhibition call was “inactive”.
Take `C[C@H](CO)N1C[C@H](C)[C@@H](CN(C)S(=O)(=O)c2ccccc2)Oc2ccc(NC(=O)CCN3CCOCC3)cc2CC1=O`: in the assay on HSkMC, the cytotoxicity call was “inactive”. Besides, the growth inhibition call in the assay on S. aureus RN4220 was “inactive”.
For `C[C@@H]1CN([C@H](C)CO)C(=O)c2cc(NC(=O)Cn3cnnn3)ccc2O[C@@H]1CN(C)S(=O)(=O)c1cn(C)cn1`, the cytotoxicity call with HSkMC was “inactive”. Besides, in the assay on S. aureus RN4220, the growth inhibition call is “inactive”.
As for `Cc1ccc2nccc(C(=O)N3CCC[C@@H](Cn4cc(C(C)(C)N)nn4)C3)c2c1`, the cytotoxicity call in the assay with HSkMC is “inactive”. In the assay with S. aureus RN4220, the growth inhibition call is “inactive”.
With `C[C@@H]1CN([C@@H](C)CO)S(=O)(=O)c2ccc(C#Cc3ccncc3)cc2O[C@H]1CN(C)C(=O)c1ccncc1`, the cytotoxicity call in the assay on HSkMC is “inactive”. In the assay on S. aureus RN4220, the growth inhibition call is “inactive”.
For the compound `CC(C)NC(=O)Nc1ccc2c(c1)CC(=O)N([C@@H](C)CO)C[C@@H](C)[C@H](CN(C)Cc1ccc(-c3ccccc3)cc1)O2`, the cytotoxicity call with HSkMC is “inactive”. The growth inhibition call in the assay on S. aureus RN4220 was “inactive”.
Turning to `COc1ccc(S(=O)(=O)N[C@H]2CC[C@@H](CC(=O)N3CCC(Cc4ccccc4)CC3)O[C@@H]2CO)cc1`, in the assay on HSkMC, the cytotoxicity call is “inactive”. Besides, the growth inhibition call with S. aureus RN4220 is “inactive”.
With `C[C@H](CO)N1C[C@H](C)[C@@H](CN(C)S(=O)(=O)c2ccc(F)cc2)Oc2cc(C#Cc3ccc(F)cc3)ccc2S1(=O)=O`, the cytotoxicity call with HSkMC was “inactive”. Moreover, in the assay on S. aureus RN4220, the growth inhibition call is “inactive”.
`CC(=O)C=C(O)CCC(=O)O`: in the assay on HSkMC, the cytotoxicity call is “inactive”. Also, the growth inhibition call in the assay on S. aureus RN4220 is “inactive”.
For the compound `C[C@@H]1CN([C@H](C)CO)C(=O)c2cccc(NC(=O)c3nc4ccccc4s3)c2O[C@H]1CN(C)CC1CCCCC1`, the cytotoxicity call in the assay with HSkMC was “inactive”. Moreover, the growth inhibition call in the assay on S. aureus RN4220 is “inactive”.
Consider `C[C@H]1CCCCO[C@@H](CN(C)S(=O)(=O)c2ccc(Cl)cc2)[C@@H](C)CN([C@@H](C)CO)C(=O)c2cc(NS(=O)(=O)c3ccc(F)cc3)ccc2O1`, for which, in the assay with HSkMC, the cytotoxicity call was “inactive”. The growth inhibition call in the assay on S. aureus RN4220 was “inactive”.
Regarding `Nc1nnc(C(=O)N2CCCCC2)[nH]1`, in the assay with HSkMC, the cytotoxicity call was “inactive”. Also, the growth inhibition call in the assay with S. aureus RN4220 was “inactive”.
`COc1cccc(S(=O)(=O)N2C[C@@H](O)COC[C@@H]3O[C@@H](CC(=O)N4CCN(C)CC4)CC[C@H]32)c1`: in the assay on HSkMC, the cytotoxicity call was “inactive”. Also, in the assay on S. aureus RN4220, the growth inhibition call is “inactive”.
As for `O=C1NC(=O)[C@@H](c2ccccc2)N1`, in the assay on HSkMC, the cytotoxicity call was “inactive”. Further, in the assay with S. aureus RN4220, the growth inhibition call was “inactive”.
In the case of `CN1CCN(C(=O)C[C@@H]2CC[C@H]3[C@@H](COC[C@@H](O)CN3C(=O)C3CCOCC3)O2)CC1`, the cytotoxicity call in the assay on HSkMC is “inactive”. The growth inhibition call in the assay on S. aureus RN4220 was “inactive”.
Regarding `C[C@H](CCC(=O)NCC(=O)NCCS(=O)(=O)O)[C@H]1CC[C@H]2[C@@H]3[C@H](O)C[C@@H]4C[C@H](O)CC[C@]4(C)[C@H]3C[C@H](O)[C@]12C`, the cytotoxicity call with HSkMC is “inactive”. Besides, the growth inhibition call in the assay on S. aureus RN4220 is “inactive”.
Consider `O=C1O[C@H](c2ccccc2)[C@H](c2ccccc2)N2[C@H]1[C@@H](C(=O)NC[C@@H](O)c1ccccc1)[C@]1(C(=O)Nc3ccc(C#CC4(O)CCCCCC4)cc31)[C@H]2c1ccccc1OCCO`, for which the cytotoxicity call with HSkMC is “inactive”. In the assay with S. aureus RN4220, the growth inhibition call is “inactive”.
For `O=[N+]([O-])c1ccc(NCCNCCO)cc1`, the cytotoxicity call in the assay with HSkMC was “inactive”. For the same compound, the growth inhibition call with S. aureus RN4220 is “inactive”.
In the case of `C[C@H]1CN([C@@H](C)CO)C(=O)c2cccc(NC(=O)Nc3ccc(C(F)(F)F)cc3)c2O[C@H]1CN(C)C(=O)Nc1cccc2ccccc12`, the cytotoxicity call in the assay on HSkMC was “inactive”. Moreover, the growth inhibition call with S. aureus RN4220 was “inactive”.
As for `C[C@@H]1CN([C@H](C)CO)C(=O)c2cc(NC(=O)Cn3cnnn3)ccc2O[C@H]1CN(C)S(=O)(=O)c1cccs1`, the cytotoxicity call in the assay with HSkMC is “inactive”. Also, the growth inhibition call with S. aureus RN4220 was “inactive”.
In the case of `C[C@H]1CC(=O)Nc2c1c(N)nn2C`, in the assay on HSkMC, the cytotoxicity call is “inactive”. Moreover, the growth inhibition call in the assay on S. aureus RN4220 is “inactive”.
With `COc1ccc(NC(=O)Nc2ccc3c(c2)C(=O)N([C@H](C)CO)C[C@@H](C)[C@H](CN(C)Cc2ccc4c(c2)OCO4)OCCCC[C@@H](C)O3)cc1`, the cytotoxicity call in the assay with HSkMC is “inactive”. For the same compound, in the assay on S. aureus RN4220, the growth inhibition call was “inactive”.
Consider `CC(C)NC(=O)Nc1cccc2c1O[C@H](CN(C)S(=O)(=O)c1ccc(F)cc1)[C@@H](C)CN([C@H](C)CO)C2=O`, for which, in the assay on HSkMC, the cytotoxicity call was “inactive”. Besides, the growth inhibition call with S. aureus RN4220 is “inactive”.
Take `C[C@@H]1CN([C@@H](C)CO)C(=O)c2cc(NS(=O)(=O)c3cn(C)cn3)ccc2O[C@@H](C)CCCCO[C@H]1CN(C)S(=O)(=O)c1cccs1`: in the assay on HSkMC (human skeletal muscle cells), the cytotoxicity call is “inactive”. The growth inhibition call in the assay on S. aureus RN4220 is “inactive”.
